# Measured values: the supplement of paper PMC3724861
# This is one part of the list.
# Test system: T1, Caupolican (Caup) homeodomain DNA-binding domain
# T1 sequence: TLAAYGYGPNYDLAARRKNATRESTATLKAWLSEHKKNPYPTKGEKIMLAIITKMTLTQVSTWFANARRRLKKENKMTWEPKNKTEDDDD
# Assay: PBM E-score (8-mer, recovered from the published 9-mer minima) (E-score (dimensionless, -0.5 to 0.5)); Drosophila protein; higher = stronger relative binding preference, active = 0.31 or more
# In short: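 Caup's homeodomain DNA-binding domain (residues 214-303) was produced by in vitro transcription and translation and applied at 100 nM to custom-designed protein binding microarrays. Each value is an enrichment score giving relative binding preference for a short DNA word; higher means stronger. Published 9-mer scores were the minimum of their two constituent 8-mer scores, and the 8-mer values were recovered from those minima. A cutoff of 0.31 marks candidate binding sequences.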
row,Sequence,PBM E-score
1,AAGTCGCC,inactive: -0.242
2,GTGGGCAA,inactive: -0.126
3,CTCAGAAG,inactive: -0.12
4,CATAACAA,inactive: 0.308
5,ACGGGTGG,inactive: -0.153
6,AGACCGCT,inactive: -0.133
7,CCACCTAA,inactive: -0.0859
8,ACTCCGAC,inactive: -0.0719
9,ATGCTAAC,≥ 0.201
10,AGCTCTGG,inactive: -0.164
11,AAAATGTC,inactive: 0.217
12,CGCGCACA,inactive: -0.123
13,ATGGTTCC,inactive: 0.0108
14,CAATGGTG,inactive: -0.0165
15,CAACTTGC,inactive: -0.0807
16,CGACCGAG,inactive: -0.187
17,GTGGGAGA,inactive: -0.165
18,CATCGAGA,inactive: 0.0127
19,AAAATTGC,inactive: 0.0174
20,CCGTCGGC,inactive: -0.232
21,AGCGAGCC,inactive: -0.182
22,AGAGAGTC,inactive: -0.121
23,ACCCAAGA,inactive: -0.00931
24,GACGTACA,inactive: 0.173
25,GTTTCAGA,inactive: -0.0391

row,Sequence,PBM E-score
1,CCAGTCAC,inactive: -0.0969
2,CGTTACCC,inactive: -0.0963
3,CTGCGGCA,inactive: -0.131
4,AACCGCCA,inactive: -0.109
5,GAAATAGC,inactive: -0.0179
6,TGATCAAA,inactive: 0.136
7,ATAGTAAA,inactive: 0.221
8,CAACCCGG,inactive: -0.188
9,CATCACGA,inactive: 0.107
10,CTCTGTCC,inactive: 0.0668
11,AATGACAG,inactive: 0.219
12,GACTTGCC,inactive: -0.0874
13,ACAAGAGA,inactive: 0.203
14,CTAGGCAA,inactive: -0.109
15,ATACATTC,active: ≥ 0.314
16,CGGGTGCA,inactive: -0.214
17,GTAACTAA,inactive: 0.116
18,GACATCAC,inactive: 0.259
19,CCCCTGCA,inactive: -0.211
20,CAATGGCC,inactive: -0.187
21,CAGTGGGC,inactive: -0.216
22,AATGACTC,inactive: 0.118
23,CATCTAAC,inactive: 0.0247
24,CGGTGCTA,inactive: -0.144
25,CATTGGAG,inactive: -0.0395

row,Sequence,PBM E-score
1,CAAACGCA,inactive: -0.0499
2,AGCCCGGA,inactive: -0.247
3,CATATTGA,inactive: 0.164
4,GCGAACCC,inactive: -0.164
5,AGAAAACT,inactive: 0.0106
6,ACGTAAAT,inactive: 0.102
7,AGAGACAC,inactive: 0.0757
8,ACGGACCC,inactive: -0.139
9,GGCCGCAA,inactive: -0.224
10,CGAACGTA,inactive: 0.0606
11,AATGTCGT,inactive: 0.266
12,CTGGGTCC,inactive: -0.2
13,CCATGTCC,inactive: 0.292
14,GCAGCACC,inactive: -0.101
15,AGCGCGTC,inactive: -0.132
16,ACACTAAA,inactive: 0.182
17,ACTTCCTA,inactive: 0.0242
18,CGTTAGAA,inactive: 0.063
19,CCACGTGA,inactive: -0.0707
20,ACAGCGAG,inactive: -0.0026
21,AAAGTCTC,inactive: -0.136
22,GCAATTGC,inactive: 0.026
23,TGATTTAA,inactive: 0.174
24,GGGTGCTA,inactive: -0.00521
25,GGGGCTAA,inactive: -0.185

row,Sequence,PBM E-score
1,AACCTTAA,inactive: -0.0003
2,CAACAAGC,inactive: 0.202
3,ATATAGGC,inactive: 0.0531
4,ACCGAAAA,inactive: 0.072
5,GCGCGGTA,inactive: -0.0591
6,AGGGATTG,inactive: -0.0847
7,GTCAGCCA,inactive: 0.00104
8,ACACTACC,inactive: 0.0978
9,AGTGCTAA,inactive: -0.0109
10,TACCTCCA,≥ -0.00139
11,CGACAGGA,inactive: 0.145
12,AAGCTTAG,inactive: -0.00217
13,ACCGATCG,inactive: -0.0125
14,AGTCATAT,inactive: 0.103
15,CCTGTATA,inactive: 0.142
16,ACATTAAA,inactive: 0.255
17,CCTATTTC,≥ 0.137
18,CGTACTCC,inactive: -0.0465
19,GAGACGTA,inactive: -0.0126
20,ACCCTATC,inactive: -0.0298
21,TCTGAGCA,≥ 0.0229
22,ATTTGGAG,inactive: -0.129
23,CATGCACA,inactive: 0.229
24,GCGCATGA,inactive: -0.159
25,ATCGCACA,≥ 0.0699

row,Sequence,PBM E-score
1,CTACGAAG,inactive: -0.0135
2,GGGACTTA,inactive: -0.0424
3,ACCTACGT,≥ 0.0774
4,CAACCCTG,inactive: -0.012
5,ACGGCGCC,inactive: -0.209
6,GGATTGTA,inactive: 0.0984
7,CAATGTTC,inactive: 0.218
8,ATGCTCTG,inactive: -0.0113
9,AGCATCCG,inactive: 0.0108
10,CCTCTCGA,inactive: -0.157
11,AACGTGGG,inactive: -0.0743
12,GATAGCCC,inactive: -0.245
13,AACGTGCA,inactive: 0.105
14,CCGGCGTA,inactive: -0.129
15,CCTTCGAG,inactive: -0.182
16,GATTTTTA,inactive: 0.0485
17,CATCTGGA,inactive: -0.00757
18,AGCTGACT,inactive: -0.0935
19,CTGTAGTA,active: 0.348
20,ACGACTCT,≥ 0.0628
21,CGATCACC,inactive: -0.072
22,CTGCGAAA,inactive: -0.04
23,CTGATATA,inactive: 0.211
24,GCAGATAC,inactive: 0.03
25,GTTCATCA,inactive: 0.111

row,Sequence,PBM E-score
1,AGCACTAG,inactive: 0.00807
2,GAGGCTGC,inactive: -0.2
3,CGAGCCCC,inactive: -0.252
4,GACTACCA,inactive: 0.106
5,CCGGGTAA,inactive: -0.0595
6,ATTGTTGG,inactive: 0.145
7,AGTGGGAA,inactive: -0.112
8,CACTCTGA,inactive: 0.0251
9,CAGTTCGA,inactive: 0.129
10,GAAGAATC,inactive: -0.119
11,CTGTATCA,inactive: 0.15
12,GGGTATAA,inactive: -0.0971
13,CGGTAGCC,inactive: -0.0876
14,CTGACTAA,inactive: 0.0361
15,AACCGTGC,inactive: -0.0695
16,ACATTCTA,≥ 0.247
17,CCAATAGA,inactive: 0.077
18,CGATACCA,inactive: 0.0656
19,GAATATCC,inactive: 0.0199
20,GGATATCC,inactive: 0.0403
21,AGACGACT,inactive: 0.0148
22,CGGAACTA,inactive: -0.0396
23,CACATTAG,inactive: -0.00577
24,ATTGCTAA,inactive: 0.0919
25,AGACCAGA,inactive: 0.0165

row,Sequence,PBM E-score
1,AAGCGCAA,inactive: -0.0245
2,GTAGCTAC,inactive: 0.201
3,AGCAGTAG,inactive: -0.098
4,AATGGTCC,inactive: -0.00432
5,CCGCCTAG,inactive: -0.202
6,CGCCTGAC,inactive: -0.0938
7,GTCGAGCA,inactive: -0.0397
8,ATTCCCTG,inactive: 0.0397
9,AGGGAGGA,inactive: -0.166
10,ACTGTGGA,inactive: 0.0533
11,GATCCGCC,inactive: -0.183
12,CCCGATCG,inactive: -0.136
13,ATCTGCGA,inactive: -0.0313
14,GACCGATA,inactive: -0.016
15,GAACTGCC,inactive: -0.152
16,ATGGAGTC,inactive: 0.0444
17,AGGGAAAG,inactive: -0.0327
18,GAAGATAA,inactive: 0.105
19,AACTTAAG,inactive: 0.0426
20,CAAGTCAG,inactive: 0.068
21,CGGTGGAA,inactive: -0.122
22,CTTGGATC,inactive: 0.0244
23,ACGCAACT,inactive: -0.0183
24,AAGGGATA,≥ 0.0625
25,AACCAAGA,≥ 0.0686

row,Sequence,PBM E-score
1,CGACAACC,inactive: 0.186
2,GCAAGCGA,≥ 0.0812
3,ATGGACTG,inactive: 0.0602
4,CTGAAAGC,inactive: -0.0655
5,AATTTCTC,inactive: -0.0329
6,AAAGAGCT,inactive: -0.149
7,AGTTGAAT,inactive: -0.00343
8,CAGCTCGC,inactive: -0.15
9,GGGGGTAC,inactive: -0.133
10,AGCAAAGA,inactive: -0.0865
11,CGACTACA,inactive: 0.267
12,AGCTATAG,inactive: -0.0145
13,GAGTACTA,inactive: 0.182
14,GAAATTTC,inactive: -0.154
15,AGGACCGC,inactive: -0.148
16,CACCAAGA,inactive: 0.00541
17,ATTGGTCC,inactive: 0.0248
18,ATGGCGGA,inactive: -0.154
19,GCGGATAC,inactive: 0.0482
20,ATGTGCGA,inactive: 0.0607
21,CGTGCGCC,inactive: -0.176
22,CACGCTCA,inactive: 0.0645
23,AGGAGACT,inactive: -0.0925
24,AACGTTGG,inactive: -0.00739
25,AACCCTCC,inactive: -0.204

row,Sequence,PBM E-score
1,ATAAGTCG,inactive: -0.0808
2,AGTGGCAA,inactive: -0.0427
3,ATTTTTTG,inactive: 0.0886
4,GCCCAAAA,inactive: -0.0354
5,CTCCACAA,inactive: -0.00297
6,CCGAACGG,inactive: -0.0868
7,GGGTAGGA,inactive: -0.113
8,CTAAAGGA,inactive: -0.0521
9,CAATACTA,inactive: 0.11
10,CAGTCATG,inactive: 0.0102
11,CATTCTAC,inactive: 0.117
12,CCCGGGTA,inactive: -0.125
13,AAACGTTG,inactive: -0.0301
14,AGCATCGC,inactive: -0.217
15,AGCGTATG,inactive: 0.0253
16,GACTCCTA,inactive: -0.0155
17,CTTAGAAG,inactive: -0.0266
18,AACGACTT,inactive: -0.0108
19,GATCTACC,inactive: 0.00523
20,CCCCACAG,inactive: -0.143
21,ACGTCGTG,inactive: 0.0425
22,AGAGGCTA,inactive: -0.0745
23,GTAGGCAA,inactive: 0.0144
24,AGCAATAG,inactive: -0.0263
